The results in this text go back to PubChem BioAssay (NCI).

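1) Cells in 96-well plates. 2) Compound, 48 h, 5 concentrations. 3) Linear interpolation between surrounding doses. 4) Unreached endpoint = highest concentration. GI50 is the concentration that inhibits growth by half.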 The source holds more than one record for some entries. The list is limited to them. The source may hold further records. Results that share an entry repeat one measurement in other runs, samples, wells, individuals or studies. Marks in square brackets tell the records apart. The letters are not those of the source and start again with each entry. Where a SMILES comes first, the peptide text is derived from it. The star is where a group is joined. Fmoc = O=C(OCC1c2ccccc2-c2ccccc21)*; Boc = CC(C)(C)OC(=O)*; OtBu = CC(C)(C)O* Bounds are passed on as bounds.

This assay relates to SK-OV-3 ovarian. Briefly: inhibition of tumour cell growth, NCI panel, 48 h.

Take `CC(C)(C)OC(=O)CCC(NC(=O)OCC1c2ccccc2-c2ccccc21)C(=O)NC(Cc1c[nH]c2ccccc12)C(=O)NC(CCCCNC(=O)OC(C)(C)C)C(=O)N1CCCC1C(=O)NCC(N)=O` (stereo unspecified) (Fmoc-E(OtBu)WK(Boc)PG-NH2; configuration not given here): the GI50 was > 100 µM [sample A, 1 test] and 953 nM [sample B, 1 test].
